Assay results as given in the supplement of paper PMC10126150.
Values marked as one replicate rest on one cluster of the flow cell; about a third of the high ones do not repeat.

Test system: ATP
Test: switch fluorescence ratio, 500 uM ATP over buffer (Cy3 cluster intensity, sum of 5 cycles each) (fold (ratio)); higher = stronger signal-on switching upon ATP binding; sequences stand for … in TCGTCGGCAGCGTCAGATGTGTATAAGAGACAGTTTTTTTTTTTTTTTTTTTTTTTTT…TC
Settings: aptamer strand: ATP DNA aptamer (quencher-CACCTGGGGGAGTATTGCGGAGGAAGG + anchor), 100 nM annealed; ATP concentration: 500 uM; one replicate
Outline: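 For every switch-domain sequence, the fluorescence ratio is the mean of per-cluster values, each being summed target-cycle Cy3 intensity over summed buffer-cycle Cy3 intensity. Clusters outside 100-1000 RFU were excluded. On a modified Illumina MiSeq flow-cell, the Cy3-labelled switching-strand clusters were annealed to 100 nM quencher-labelled ATP aptamer, imaged in selection buffer and then after 15 min with 500 uM ATP at 22 °C. Five such cycles were run, with NaOH stripping and re-annealing between them.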
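Also: ATP exposure 15 min at 22 °C before imaging.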

| Sequence | switch fluorescence ratio |
| --- | --- |
| GAACCCCCGG | 0.986 |
| GAACCGGATT | 1.15 |
| GAACCGGGCG | 1.06 |
| GAACCGGGGA | 0.95 |
| GAACCGTCTG | 1.01 |
| GAACCTAAAA | 0.97 |
| GAACCTACGC | 1.94 |
| GAACCTCGCT | 1.03 |
| GAACGAAAAG | 1 |
| GAACGAGGCA | 1.01 |
| GAACGGGACG | 1.05 |
| GAACGGGTG | 1.11 |
| GAACGTAAAT | 1.15 |
| GAACTAGCAG | 0.978 |
| GAACTGATT | 0.988 |
| GAACTTACAC | 1.24 |
| GAAGAAACTA | 0.978 |
| GAAGAATCCA | 0.983 |
| GAAGATAGTC | 1.09 |
| GAAGATGACG | 1.01 |
| GAAGATTGAG | 0.983 |
| GAAGCAAATA | 3.18 |
| GAAGCACTC | 3.08 |
| GAAGCAGGCC | 1.06 |
| GAAGCATGAA | 1.08 |
| GAAGCCCCGC | 0.936 |

| Sequence | switch fluorescence ratio |
| --- | --- |
| GAAGCCTGGG | 1.03 |
| GAAGCGCTGG | 0.984 |
| GAAGCTAAAA | 1.03 |
| GAAGCTCGTT | 1.01 |
| GAAGGAGATA | 1.07 |
| GAAGGCCGAT | 1.02 |
| GAAGGGGCGT | 0.959 |
| GAAGGTCAAG | 0.962 |
| GAAGGTGCTT | 1.08 |
| GAAGGTGGCG | 1.02 |
| GAAGGTTGTA | 1.01 |
| GAAGTAAAGG | 0.99 |
| GAAGTAACTA | 1.03 |
| GAAGTACAAC | 1.19 |
| GAAGTCAAAT | 1 |
| GAAGTCAACA | 1.02 |
| GAAGTGAAAG | 0.985 |
| GAAGTGCAAG | 1.03 |
| GAAGTTCCCG | 0.982 |
| GAAGTTCGCG | 1.02 |
| GAAGTTCTGA | 0.966 |
| GAAGTTGCC | 1.07 |
| GAAGTTTGAA | 0.988 |
| GAATAATCAA | 0.988 |
| GAATAATCTG | 1.06 |
| GAATAATTAG | 0.976 |

| Sequence | switch fluorescence ratio |
| --- | --- |
| GAATACGCCC | 1.9 |
| GAATAGACAC | 1.03 |
| GAATAGCCAT | 1.01 |
| GAATCATACT | 1 |
| GAATCATTAC | 1.25 |
| GAATCCAAAG | 1.02 |
| GAATCGGATG | 0.994 |
| GAATCTGCGG | 1.01 |
| GAATCTGTTC | 1.02 |
| GAATGAATTT | 0.976 |
| GAATGCGTTT | 1.01 |
| GAATGGAGAC | 1.04 |
| GAATGTTGCG | 0.946 |
| GAATTAAGAA | 0.984 |
| GAATTATCCT | 1.06 |
| GAATTATTGA | 1 |
| GAATTATTTA | 0.953 |
| GAATTCAAAA | 0.989 |
| GAATTCGAG | 0.987 |
| GAATTCTCTA | 0.973 |
| GAATTCTCTG | 0.989 |
| GAATTGAAAG | 1.15 |
| GAATTGTAGA | 0.975 |
| GAATTTTTAT | 0.992 |
| GACAAAAACT | 1.05 |
| GACAAAATGG | 1.08 |

| Sequence | switch fluorescence ratio |
| --- | --- |
| GACAAAGACC | 1.01 |
| GACAACCGCC | 1.43 |
| GACAAGATTT | 1.04 |
| GACAAGCA | 0.971 |
| GACAATG | 1.05 |
| GACAATGGGG | 1.02 |
| GACAATTAAT | 0.963 |
| GACAATTATA | 1.02 |
| GACACCACGC | 1.65 |
| GACACCTTAA | 1.14 |
| GACACCTTGC | 2.64 |
| GACACTCTGC | 1.09 |
| GACAGACTGG | 0.989 |
| GACAGATAAT | 0.956 |
| GACAGGCTTG | 0.983 |
| GACAGTATAT | 1.08 |
| GACAGTTAC | 1.29 |
| GACAGTTCT | 1.03 |
| GACATACCTT | 0.958 |
| GACATAGCTG | 1.11 |
| GACATATCGT | 1.06 |
| GACATCGCCC | 1.07 |
| GACATCTGGC | 0.985 |
| GACATGAGAA | 0.999 |
| GACATGCTAG | 1.02 |
| GACATGGATG | 1.01 |

| Sequence | switch fluorescence ratio |
| --- | --- |
| GACATTACGC | 1.28 |
| GACATTCAAG | 1 |
| GACATTTGTG | 1.04 |
| GACCACCAAT | 1.09 |
| GACCACGCGA | 3.09 |
| GACCACGGGA | 0.991 |
| GACCACGGTT | 1.05 |
| GACCAGAGCT | 1.12 |
| GACCAGTTAT | 1.01 |
| GACCATACTC | 1.7 |
| GACCATGAAG | 0.981 |
| GACCATTTCG | 0.988 |
| GACCCATCCT | 1.17 |
| GACCCCCGAG | 1.03 |
| GACCCTTTGC | 1.01 |
| GACCGAATT | 0.989 |
| GACCGATGAC | 1.32 |
| GACCGGGGAC | 1.07 |
| GACCGGGGGG | 1.06 |
| GACCGGGGGT | 2.67 |
| GACCGGTGGC | 1.03 |
| GACCGTCCCC | 1.17 |
| GACCGTCCTA | 1.11 |
| GACCGTGAAG | 0.956 |
| GACCTACAGC | 1.13 |
| GACCTCGCAG | 1.17 |

| Sequence | switch fluorescence ratio |
| --- | --- |
| GACCTGCTAT | 1.09 |
| GACCTTTCCA | 1.14 |
| GACGAGTCGT | 0.986 |
| GACGATCAGG | 1.03 |
| GACGCGTCGT | 1 |
| GACGCTAATG | 1.18 |
| GACGCTCG | 0.984 |
| GACGCTTGGC | 1.36 |
| GACGGACCTT | 1.07 |
| GACGGCCAC | 1.62 |
| GACGGGCGGG | 1 |
| GACGGGTGGG | 1.06 |
| GACGGTGAGG | 0.979 |
| GACGGTGGGG | 0.947 |
| GACGGTTTAA | 1.02 |
| GACGTATTT | 1.06 |
| GACGTCAATA | 1.2 |
| GACGTCACCC | 1.56 |
| GACGTGCAGC | 1.07 |
| GACGTGCATC | 1.28 |
| GACGTGCGAG | 0.966 |
| GACGTGGGTA | 1.01 |
| GACTAAATTA | 0.987 |
| GACTAAGTGG | 1.02 |
| GACTACACTT | 1.25 |
| GACTACATAG | 1.01 |

| Sequence | switch fluorescence ratio |
| --- | --- |
| GACTAGATGG | 0.973 |
| GACTAGGAG | 1.06 |
| GACTAGGGAT | 1 |
| GACTATATT | 0.989 |
| GACTATTTGT | 1.03 |
| GACTATTTTT | 1.01 |
| GACTCACATG | 1.06 |
| GACTCGAGAT | 1.05 |
| GACTCTAATG | 0.998 |
| GACTGCATGC | 2.27 |
| GACTGGAAAA | 1.01 |
| GACTGGCTCG | 1.1 |
| GACTGTCGGT | 0.999 |
| GACTGTTAGA | 0.975 |
| GACTTAGGC | 1.06 |
| GACTTCAGAG | 0.989 |
| GACTTCCCCG | 2.89 |
| GACTTCGATG | 0.96 |
| GACTTCTTTG | 1.03 |
| GACTTGACGG | 1.02 |
| GACTTGAGC | 1.08 |
| GACTTGCATC | 1.19 |
| GACTTGTGCA | 0.961 |
| GACTTTCCTA | 1.08 |
| GACTTTCGAT | 1.05 |
| GACTTTCGCA | 1.51 |

| Sequence | switch fluorescence ratio |
| --- | --- |
| GACTTTGGCT | 1.02 |
| GAGAAAGACT | 1.05 |
| GAGAACTTTA | 0.997 |
| GAGAATAACT | 1.03 |
| GAGAATATG | 0.973 |
| GAGAATATTA | 0.946 |
| GAGAATGGTG | 1.01 |
| GAGACAAAA | 1.03 |
| GAGACACCAC | 1.19 |
| GAGACAGGTT | 1.04 |
| GAGACCATAA | 0.99 |
| GAGACCATG | 0.969 |
| GAGACCCTCT | 1.04 |
| GAGAGATGCT | 0.971 |
| GAGAGCGGGA | 0.939 |
| GAGAGGAATG | 1.01 |
| GAGAGGATTG | 0.987 |
| GAGAGGTGAT | 1 |
| GAGAGTCGGG | 0.938 |
